According to PubChem BioAssay AID1508623 (National Center for Advancing Translational Sciences (NCATS), 2021):
Screen size: about 48,000 compounds; about 450 (0.94%) were called active. Not shown: some 19% with an inconclusive outcome. Calls come from the whole dose curve; as a rule, active = well fitted inhibition curve with a large enough effect; inconclusive = small, poorly fitted or top-dose-only effect; inactive = no such curve, though single readings can be large or run the other way. Some of the results follow.

Experiment: Primary qHTS for Identification of Small Molecule Inhibitors of Huntingtin Promoter Activity; note: nearly all actives have a fitted effect of over 50% in size
Conditions: HEK293 HTT promoter firefly luciferase reporter (activity 0% = vehicle and -100% = no light), 24 h; series mostly up to 57.5 µM; activity change, negative = inhibition: at the top concentration
Outline: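 HEK293 Fluc reporter, 2,500 cells/well, 24 h pre-culture; cpds up to 57.5 uM final, 24 h 37 degrees C; Dual-Glo, 10 min RT; normalized vehicle = 0%, zero RLU = -100%.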

Activity change, negative = inhibition, inactive:
COc1cc(NC(=O)Cn2c(=O)n(Cc3ccccc3Cl)c(=O)c3cc(OC)c(OC)cc32)cc(OC)c1 -5.19%, CCCc1c(C(=O)OCC)nnc2c(-c3ccccc3)c(C)nn12 -8.09%, COc1ccc(CCN2C(=O)N(c3ccc(F)cc3)C(=O)C2CC(=O)Nc2ccccc2)cc1OC (stereo unspecified) -8.81%, O=C(c1ccc(Nc2nc3ccccc3n3nnnc23)cc1)N1CCN(c2ccc(F)cc2)CC1 -8.01%, COc1cc(NC(=O)c2cc3nc(-c4ccc(C)cc4)cc(C(F)(F)F)n3n2)cc(OC)c1OC -8.77%, CCc1ccc(NC(=O)c2cc(S(=O)(=O)N3CCCCC3)c[nH]2)cc1 0.528%, COc1ccc(OCc2ccc(-c3nc(C#N)c(N4CCC(C(N)=O)CC4)o3)o2)cc1 -16.8%, Cc1ccc(CNC(=O)c2nnn(Cc3ccc(F)cc3)c2N)cc1 -12.2%, O=S(=O)(Nc1ccc(F)cc1F)c1ccc(Br)s1 -24.7%, O=C(Nc1cc(-c2nc3cc(Cl)ccc3o2)ccc1Cl)c1cccc2ccccc12 24.6%, CCn1c2c(c(=O)n3ncc(C(=O)Nc4ccc(OC(F)(F)F)cc4)c13)CN(Cc1ccc(OC)cc1)CC2 -16.7%, Cc1ccc2c(c1)cc1c(=O)n(CC(=O)NC(C)CCc3ccccc3)nc(C)n12 (stereo unspecified) -2.81%, Cn1c2c(c(=O)n(C)c1=O)C(c1ccccc1[N+](=O)[O-])CC(=O)N2 (stereo unspecified) -4.27%, COc1ccccc1CNc1ccc(-c2nc(-c3ccccc3C)no2)cc1[N+](=O)[O-] -6.08%, CCOc1nc(NC(=O)NS(=O)(=O)Oc2cccc(Cl)c2)nc(-c2ccccc2)n1 45.2%, CC1CCn2c(nc3cc(C(=O)NCc4ccc(F)cc4)ccc32)C1 (stereo unspecified) 9.72%, CCOC(=O)c1nn2c(C(F)(F)F)cc(-c3ccc(C)cc3)nc2c1Cl 0.198%, CCCCC(=O)Nc1nnc(SCc2cc(=O)n3cc(C)ccc3n2)s1 -5.77%, Cc1ccc(CNC(=O)CSc2nc(=O)n(Cc3ccco3)c3c2CCC3)cc1 8.69%, COc1ccc(-c2c(C#N)c(SCC(=O)Nc3ccc(C)cc3)nc(C)c2C(=O)Nc2ccccc2)cc1 -14.8%, CC(C)(C)NCC(O)c1ccc(O)c(CO)c1 (stereo unspecified), COc1cccc(CNC(=O)CN2CCCN(Cc3ccccc3)S2(=O)=O)c1 -9.29%, CCOc1ccc(-n2nc3ccc(NC(=O)c4cccc(F)c4)cc3n2)cc1 -16.4%, CCOc1ccc(-c2nnc(SCC(=O)NC(C)CC)nc2-c2ccc(OCC)c(OC)c2)cc1OC (stereo unspecified) -2.46%, COc1cc(C(=O)Nc2cccc(OCc3cc(=O)n4cc(C)sc4n3)c2)cc(OC)c1OC 1.46%, CC(=O)Nc1nonc1-c1nnc(SCC(=O)Nc2cccc(C)c2C)n1-c1ccccc1 -15.4%, Cc1nn(C)c(C)c1CCNC(=O)Nc1cccc(Cl)c1C 5.93%, COc1ccc(Cn2cc(C(=O)c3ccc(F)cc3)c(=O)c3cc4c(cc32)OCCO4)cc1 -29.7%, COc1ccc(-c2nc3ccccc3o2)cc1NC(=O)c1ccc(-c2ccc(Br)cc2)o1 4.2%, CCCCc1nn2c(=O)cc(COC(=O)c3ccco3)nc2s1 -4.82%, Cc1cccc(NC(=O)C2CCCN(S(=O)(=O)c3c(C)n[nH]c3C)C2)c1 (stereo unspecified) -21.6%, CCC(C(=O)Nc1ccccc1)n1nc(-c2cc(C)ccc2C)ccc1=O (stereo unspecified) -23.3%, CCN1C(=O)N(c2ccc(C(C)=O)cc2)S(=O)(=O)c2ccccc21 -13.4%, CSc1ccc(CCNC(=O)Cn2ncn3c(cc4ccccc43)c2=O)cc1 -0.131%, CCOc1ccc(-n2c(=O)c3c(C)c(C)sc3n(CC(=O)Nc3ccc(CC)cc3)c2=O)cc1 -16.1%, CCN(C(=O)c1cc2c(=O)n(CC)c3ccccc3c2s1)c1cccc(C(F)(F)F)c1 2.35%, Cn1nc(-c2ccc(OCC(=O)Nc3ccc(Cl)cc3)cc2)c2ccccc2c1=O -23.1%, COc1ccc(Br)cc1CNC(=O)c1cnc2sc(N3CCCCCC3)nn2c1=O -20.8%, O=C(CSc1cn(CCNC(=O)c2ccccc2F)c2ccccc12)Nc1ccc(F)cc1 -19.2%, COc1cccc(N2C(=O)CSC23C(=O)N(CC(=O)Nc2cccc(Cl)c2)c2ccccc23)c1 (stereo unspecified) -25.7%, CN1CC(=O)N2C(Cc3c([nH]c4ccccc34)[C@H]2c2ccc3c(c2)OCO3)C1=O (stereo partly specified) -16.3%, COc1cc(CN(C(=O)COc2ccccc2Cl)c2ccccn2)cc(OC)c1OC -27.1%, CCn1c(C)c(C)c2cc(C(=O)N3CCN(c4cccc(C)c4C)CC3)ccc21 -7.43%, CCOc1ccc(-n2c(=O)c3c4c(sc3n(CC(=O)NC(C)CC)c2=O)CCC4)cc1 (stereo unspecified) 19.2%, O=S(=O)(c1ccc(Cl)cc1)c1nnn2c1nc(NCc1cccs1)c1sccc12 -26.5%, COc1ccc(CC(=O)Nc2cc(-c3nc4cccnc4s3)ccc2C)cc1 47.3%, CN(C)S(=O)(=O)N(CC(=O)NCCSCc1cccc(Cl)c1)c1ccccc1 -29.1%, CCC(=O)Nc1ccc2nc(SCc3ccccc3)sc2c1 4.87%, CCC(CC)C(=O)N1CCc2cc(OC)c(OC)cc2C1COc1ccc(C(=O)OC)cc1 (stereo unspecified) -29.4%, COc1ccc(C)cc1NC(=O)CSc1nc(=O)[nH]c2c1CCCC2 -29.4%, CCOc1ccc(-n2cc(-c3ccccc3)c3c(N4CCC(C)CC4)ncnc32)cc1 -21.5%, CCOc1ccccc1NC(=O)C(=O)c1cc(C)n(-c2ccc(F)cc2)c1C 25.4%, COc1ccc(-c2nnc(Nc3ccc(OC)c(C(N)=O)c3)c3ccccc23)cc1 -16.7%, CCc1ccc2oc(-c3cccc(NC(=O)C(C)(C)Oc4ccc(Br)cc4)c3)nc2c1 10.6%, Cc1cc(C)cc(Nc2ncnc3onc(-c4ccc(F)cc4)c23)c1 -17.4%, Cc1ccc(Nc2c(-c3ccc(C)cc3)nc3ccc(C)cn23)cc1 38.8%, O=C(c1ccc2c(c1)CCCC2)N1CCN(c2nc3ccc(F)cc3s2)CC1 -12.6%, CCOc1ccc(CNC(=O)c2cc3c(s2)-c2ccccc2OC3)cc1 -11.4%, COc1cc(NC(=O)NC(C)c2c(-n3cccc3)sc3c2CCN(C)C3)cc(OC)c1 (stereo unspecified) -16.8%, COc1cccc(-n2c(SCC(=O)N3CCCc4ccccc43)nc3c([nH]c4ccccc43)c2=O)c1 -22.1%, CCc1ccc(S(=O)(=O)NCc2nc3cccnc3n2Cc2ccccc2Cl)cc1 -13.4%
